Laboratory results as given in the supplement of paper PMC10126150.
Values marked as one replicate rest on one cluster of the flow cell; about a third of the high ones do not repeat.

test system: ATP; experiment: switch fluorescence ratio, 500 uM ATP over buffer (Cy3 cluster intensity, sum of 5 cycles each) (fold (ratio)); higher = stronger signal-on switching upon ATP binding; sequences stand for … in TCGTCGGCAGCGTCAGATGTGTATAAGAGACAGTTTTTTTTTTTTTTTTTTTTTTTTT…TC; conditions: aptamer strand: ATP DNA aptamer (quencher-CACCTGGGGGAGTATTGCGGAGGAAGG + anchor), 100 nM annealed; ATP concentration: 500 uM; one replicate
In short: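 Clusters carrying Cy3-labelled switching strands on a modified Illumina MiSeq flow-cell were annealed to 100 nM quencher-labelled ATP aptamer and imaged in selection buffer. They were imaged again after 15 min with 500 uM ATP at 22 °C, over five buffer/ATP cycles with NaOH stripping and re-annealing in between. For each cluster, the fluorescence ratio is the summed Cy3 intensity of the target cycles divided by that of the buffer cycles, averaged per switch-domain sequence. Clusters outside 100-1000 RFU were left out.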
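Also: ATP exposure 15 min at 22 °C before imaging.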

Sequence	switch fluorescence ratio
ATATGGGTCA	0.97
ATATGGTACG	1.05
ATATGTGATA	0.952
ATATGTGCAG	0.926
ATATGTGCTT	0.961
ATATTAAAGA	0.987
ATATTAACGT	0.974
ATATTACCCA	1.06
ATATTATCGC	1.02
ATATTCGATA	0.975
ATATTCTAAA	0.975
ATATTCTCT	0.987
ATATTGAACC	1.01
ATATTGTACT	0.999
ATATTTAGTA	0.929
ATATTTAGTG	0.963
ATATTTTGA	0.933
ATATTTTTAA	0.983
ATCAAAAT	1.04
ATCAAACAGG	1.08
ATCAAACGGT	1.02
ATCAAGGT	1.01
ATCAAGTCAC	1.12
ATCAATCGTT	0.987
ATCACCGGGC	1.07
ATCACCTG	1.05

Sequence	switch fluorescence ratio
ATCACGAACT	1.49
ATCACTCCAT	1.07
ATCAGAATTT	0.991
ATCAGACATC	1.01
ATCAGCTGTT	0.994
ATCAGTTCTT	1.01
ATCATAGAAA	1
ATCATCGTTA	0.971
ATCATCTACT	1.02
ATCATCTTTA	0.994
ATCATGGATC	0.955
ATCATTCTTA	0.961
ATCATTTTGG	0.946
ATCCAAATTT	0.982
ATCCAACGA	0.962
ATCCAACGGT	1.07
ATCCAAGATC	1.3
ATCCATCTTG	0.956
ATCCATGGAG	1
ATCCATGTCG	1.03
ATCCCAGTGA	1.28
ATCCCATCGC	1.08
ATCCCTATAA	1.1
ATCCGAGAGA	1.04
ATCCGAGGAA	1.03
ATCCGATTTG	1.05

Sequence	switch fluorescence ratio
ATCCGCCATA	3.11
ATCCGGACTG	1.01
ATCCGGAGAT	1
ATCCGGAGG	0.98
ATCCGGCTTA	1.04
ATCCGTGGAT	1.02
ATCCGTTAGG	0.958
ATCCGTTTGG	0.972
ATCCTCACGG	1.13
ATCCTCATTT	1.02
ATCCTCCATG	1.14
ATCCTCGGTC	1.08
ATCCTCTTTA	0.999
ATCCTCTTTT	1
ATCCTGATGC	1.06
ATCCTTGCAG	1.06
ATCCTTGCCT	1.07
ATCCTTTGAC	1.08
ATCCTTTTTA	1.04
ATCGAACAC	0.99
ATCGAATGGA	1.11
ATCGACACGG	1.05
ATCGACTAA	0.984
ATCGACTATT	1.01
ATCGAGCGTT	1.03
ATCGAGGACT	1.01

Sequence	switch fluorescence ratio
ATCGATGCGC	1.06
ATCGATGCGT	1.01
ATCGATGTGG	1
ATCGCAACCT	2.12
ATCGCAGTTA	1.03
ATCGCATTAA	1.78
ATCGCCGCCC	1.19
ATCGCCGCTT	1.09
ATCGCCGGGT	0.965
ATCGCCTAAA	1.01
ATCGCCTGCT	1.01
ATCGCGCACT	1.09
ATCGCGCCTG	0.96
ATCGCTCAAG	1
ATCGGAAATC	1.06
ATCGGAGAGA	1.01
ATCGGATGTT	0.964
ATCGGCGCA	0.965
ATCGGGACAA	1.03
ATCGGGCCGC	0.983
ATCGGGCGTT	0.932
ATCGGGGATG	1.01
ATCGGTATAC	1.79
ATCGTAATCA	1.06
ATCGTGACAA	1.03
ATCGTGTTGG	0.967

Sequence	switch fluorescence ratio
ATCTAGATTA	1.02
ATCTAGCAGA	1.08
ATCTAGCGAG	1.04
ATCTATAGA	1
ATCTATGAGA	1.02
ATCTATGTGA	0.973
ATCTCAAACA	1.01
ATCTCTTAAC	0.974
ATCTCTTGAG	0.993
ATCTGATATA	0.976
ATCTGCCCCG	1.02
ATCTGCGTG	0.966
ATCTGCGTGC	1.13
ATCTGGGTG	1.12
ATCTGGTACA	1.06
ATCTGTAGTA	0.981
ATCTGTGATC	1.04
ATCTGTTACA	1.01
ATCTTAAAAG	0.956
ATCTTAACCA	0.959
ATCTTACGC	1.02
ATCTTACGCT	0.978
ATCTTATCCG	1.02
ATCTTCAAT	0.991
ATCTTCCACG	1.42
ATCTTCTTTG	1.02

Sequence	switch fluorescence ratio
ATCTTGAACG	0.99
ATCTTGGCTA	1.02
ATCTTTAACG	0.983
ATGAAACGCC	1.09
ATGAAATATG	1.06
ATGAACATTA	0.981
ATGAACCTTG	1.09
ATGAACTGGT	1.05
ATGAAGAAGG	0.998
ATGAAGCCGT	1.16
ATGAAGGCAT	0.985
ATGAATTTAC	1.02
ATGACAACAT	1.05
ATGACACACA	1.35
ATGACAGCAG	1.08
ATGACAGTCT	1.09
ATGACATCCG	1
ATGACCGGAT	1.01
ATGACGCTTC	0.977
ATGACGGA	1.04
ATGACGGCGA	0.934
ATGACGTCCT	0.984
ATGACTAAAC	1.05
ATGACTGCGT	0.998
ATGAGAAGAG	1.01
ATGAGACAGC	1.05

Sequence	switch fluorescence ratio
ATGAGACGAT	0.961
ATGAGATAGA	0.985
ATGAGCCAAG	1.02
ATGAGCCATT	1.02
ATGAGGGCGA	0.988
ATGAGGTAAG	0.998
ATGAGTCGAA	0.99
ATGAGTGAAA	0.978
ATGAGTTGTC	0.975
ATGATAGGGT	0.961
ATGATATAGG	1.01
ATGATGAGCT	0.979
ATGATTACAG	1.02
ATGATTCAT	0.984
ATGATTGGGT	0.98
ATGATTTTTG	1.01
ATGCAACTAA	1.06
ATGCACGCTC	1.02
ATGCAGAAGT	0.998
ATGCAGGCGT	0.965
ATGCAGTTAT	1
ATGCATTAG	1.03
ATGCCAGTAG	1.01
ATGCCCTGCC	1.06
ATGCCGCCGG	1.01
ATGCCTGGTA	0.996

Sequence	switch fluorescence ratio
ATGCCTTACC	1.5
ATGCGAGC	1.02
ATGCGATCGA	1.06
ATGCGCACTG	1.03
ATGCGCGTG	1.01
ATGCGCTGGA	1.01
ATGCGGAGG	1.04
ATGCGGATAC	1.8
ATGCGGCGTG	0.931
ATGCGGGACA	1
ATGCGTACGG	1.07
ATGCGTATGG	1.06
ATGCGTCTCT	1.02
ATGCGTGTAG	1.03
ATGCGTTAGT	1.06
ATGCTACGTC	0.996
ATGCTGGCGT	0.996
ATGCTGTAAT	1.01
ATGCTTACCC	1.09
